According to PubChem BioAssay AID1508623 (National Center for Advancing Translational Sciences (NCATS), 2021):
The campaign covered roughly 48,000 compounds. About 450 (0.94%) were called active. Another 19% or so got no clear call; they are omitted. Calls come from the whole dose curve; as a rule, active = well fitted inhibition curve with a large enough effect; inconclusive = small, poorly fitted or top-dose-only effect; inactive = no such curve, though single readings can be large or run the other way. The list shows a part of the results.

assay: Primary qHTS for Identification of Small Molecule Inhibitors of Huntingtin Promoter Activity; details: HEK293 HTT promoter firefly luciferase reporter (activity 0% = vehicle and -100% = no light), 24 h; series mostly up to 57.5 µM; activity change, negative = inhibition: at the top concentration; note: nearly all actives have a fitted effect of over 50% in size
Summary of the method: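 Luminescence was read after Dual-Glo reagent and a 10 min room-temperature incubation. Values were normalized to vehicle (0% activity) and zero RLU (-100% activity). Reporter HEK293 cells had been exposed to compounds (up to 57.5 uM final) for 24 h.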

| Structure (SMILES) | activity change, negative = inhibition |
| --- | --- |
| Cc1ccccc1Nc1c(-c2ccncc2)nc2ccc(Cl)cn12 | inactive: -5.58% |
| COc1ccc(CCNC(=O)c2ccc(CNS(=O)(=O)c3ccccc3)cc2)cc1OC | inactive: -19.7% |
| COc1cc(NC(=O)c2ccc(NC(=O)N3CCSc4ncccc43)cc2)cc(OC)c1 | inactive: -10.8% |
| CC(C)(C)OC(=O)N1CCC(c2c(C(=O)N3CCN(C(=O)c4ccco4)CC3)cnn2-c2ccccc2)CC1 | inactive: -8.39% |
| Cc1cccc(CCNC(=O)C2CCCN(S(=O)(=O)c3ccc4c(c3)oc(=O)n4C)C2)c1 (configuration not stated) | inactive: -25.2% |
| CCOc1cccc2sc(N(CCN(CC)CC)C(=O)c3ccco3)nc12 | inactive: 3.31% |
| Cc1ccc2nc(Cl)c3cc(C(=O)NC4CCCCCC4)sc3c2c1 | inactive: -9.08% |
| CCC1CN(C(=O)Nc2ccc(C(=O)O)cc2)c2cc(Cl)ccc2O1 (configuration not stated) | inactive: -10.1% |
| COc1cc(NC(=O)c2c(C)oc3ncnc(N4CCCCC4)c23)cc(OC)c1 | inactive: -12.9% |
| Cc1ccc2c(c1)c(=O)c1ccccc1n2CCCC(=O)Nc1c(F)cccc1F | inactive: -10% |
| CN(Cc1ccccc1)C(=O)c1cn(C)c2ccc(S(=O)(=O)N(C)C3CCCCC3)cc2c1=O | inactive: -2.84% |
| COc1ccc(/C=C(/C#N)c2nc(-c3ccc(Br)cc3)cs2)cc1 | inactive: -2.6% |
| Cc1cc(Br)ccc1NC(=O)C1CCN(S(=O)(=O)c2ccc(Br)s2)CC1 | inactive: 0.375% |
| CCOc1ccc(NC(=O)CCS(=O)(=O)c2ccc(Br)cc2)cc1 | inactive: -12.2% |
| Cc1cccc(Cn2c(SCc3ccc(C(=O)NC4CCCCC4)cc3)nc3ccncc32)c1 | inactive: 1.66% |
| COc1ccc(NC(=O)c2c(C)oc3ccc(O)c(CN4CCN(Cc5ccccc5)CC4)c23)cc1 | inactive: -8.05% |
| CCC(=O)N1CCc2cc(S(=O)(=O)CCC(=O)NCc3cccc(OC)c3)ccc21 | inactive: -8.58% |
| Cc1ccc2c(c1)-c1c(cnn1CC(=O)Nc1ccccc1C#N)CO2 | inactive: -17.9% |
| Cc1ccc(OC(=O)CSc2nnc(CNC(=O)c3ccccc3)o2)cc1 | inactive: 4.6% |
| Cc1ccc(CCNC(=O)CCSCc2ccccc2Cl)cc1 | inactive: -3.11% |
| CCCn1c2ccccc2c2cnn(CC(=O)NC(CCSC)C(=O)OC)c(=O)c21 (configuration not stated) | inactive: 2.75% |

| Structure (SMILES) | activity change, negative = inhibition |
| --- | --- |
| CCOC(=O)c1nnc2c(-c3ccc(Cl)cc3)c(C)nn2c1C | inactive: -6.4% |
| Cc1c(C(=O)NCCN(C)C)sc2nc3n(c(=O)c12)CCC3 | inactive: 0.954% |
| C[C@@H]1C[C@H]2[C@@H]3C[C@H](F)C4=CC(=O)C(Cl)=C[C@]4(C)[C@@]3(F)[C@@H](O)C[C@]2(C)[C@@]1(O)C(=O)CO | inactive: -5.14% |
| CCOc1ccc(NC(=O)c2oc3ccccc3c2NC(=O)Cc2cccc(C)c2)cc1 | inactive: -17.5% |
| COC(=O)Nc1nc2ccc(S(=O)c3ccccc3)cc2[nH]1 (configuration not stated) | inactive |
| COc1ccc(OC)c(NS(=O)(=O)c2ccc(Br)s2)c1 | inactive: -28.4% |
| CCn1cc(C(=O)O)c(=O)c2cc3c(cc21)OCO3 | inactive: 2.08% [at 25.2 µM] |
| O=C(Nc1ncc(SCCN2CCCC2)s1)[C@]1(c2ccc(S(=O)(=O)C3CC3)cc2)C[C@@H]1C1CCCCC1 | inactive: -11.6% |
| CCC(C(=O)OCCN(CC)CC)c1ccccc1 (configuration not stated) | inactive: 9.58% |
| CC(C)c1ccc(NC(=O)CCNS(=O)(=O)c2cccc3nsnc23)cc1 | inactive: -20.4% |
| CN1CCN(CCC(=O)Nc2ccc(Cl)cc2)CC1 | inactive: -17.2% |
| COc1ccc(C(=O)Oc2ccc(C(c3c(C)[nH][nH]c3=O)c3c(C)[nH][nH]c3=O)cc2OC)cc1 | inactive: 0.587% |
| Cc1cccc(NC(=O)CSc2nc(=O)n(Cc3cccnc3)c3c2CCC3)c1 | inactive: 0% |
| COc1cc(NC(=O)c2ncn(-c3ccccc3)n2)cc(OC)c1 | inactive: 54.6% |
| Cn1ncc(C(=O)N2CCN(c3ccccc3F)CC2)c1C1CCN(C(=O)OC(C)(C)C)CC1 | inactive: -4.06% |
| CC(=O)c1ccc(NC(=O)CSc2nccn2Cc2ccc3c(c2)OCO3)cc1 | inactive: -32.3% |
| Cc1cc(SCC(=O)NCc2ccc(F)cc2)nc(=O)[nH]1 | inactive: 0.945% |
| CCCCN(CC)CCCNC(=O)c1cn(CC)c2ccc(S(=O)(=O)N3CCOCC3)cc2c1=O | inactive: -9.21% |
| O=C(COCc1cc(-c2ccco2)on1)Nc1cccc(Cl)c1Cl | inactive: -3.03% |
| CCOc1ccccc1-n1nnc(S(=O)(=O)c2ccc(C)cc2)c1N | inactive: -29.2% |
| COc1ccc(C2N3CC4(C)CN2CC(c2ccccc2)(C3)C4=O)cc1 (configuration not stated) | inactive: -16.2% |

| Structure (SMILES) | activity change, negative = inhibition |
| --- | --- |
| CCOc1ccc(NC(=O)CN2CCN(c3ccc(Cl)cc3)CC2)cc1 | inactive: -13.3% |
| COc1ccc(OC)c(CCNC(=O)c2cc3c(=O)n(C)c4ccccc4c3n2C)c1 | inactive: -21.2% |
| CCOC(=O)c1cccc(NC(=O)C2CCCN(S(=O)(=O)c3cc(Br)cc4c3N(C(=O)CC)CC4)C2)c1 (configuration not stated) | inactive: -4.85% |
| COc1ccc(CN(C(=O)Cc2coc3ccc(C)cc23)C2CCS(=O)(=O)C2)cc1 (configuration not stated) | inactive: -8.08% |
| CCc1cccc(NC(=O)CCN2C(=O)c3ccccc3Sc3ncccc32)c1 | inactive: -17.3% |
| Cc1cc(=O)n2nc(N(C)CC(=O)NCc3ccc(Cl)cc3)sc2n1 | inactive: -4.1% |
| O=C(NCC1CCN(Cc2ccc(F)cc2)CC1)c1cc2ccc3cccnc3c2[nH]1 | inactive: -4.21% |
| COc1cc(Cl)c(C)cc1NC(=O)c1cc2c(s1)-c1c(C)cccc1OC2 | inactive: -14.1% |
| Cc1cc(=O)oc2cc(O[C@@H]3SC[C@@H](O)[C@H](O)[C@H]3O)ccc12 | inactive: 13.7% |
| CCc1nn(CC(=O)N2CCN(c3cccc(C)c3C)CC2)c(=O)c2cc3sccc3n12 | inactive: -5.73% |
| CCC(=O)N1CCc2cc(S(=O)(=O)NC(CC(C)C)C(=O)NCc3ccc(C)cc3)ccc21 (configuration not stated) | inactive: -13.9% |
| Cc1cc2[nH]c(=O)c(=O)[nH]c2cc1S(=O)(=O)Nc1cccc(C(F)(F)F)c1 | inactive: -4.28% |
| Cc1sc2ncn(CC(=O)N3CCN(c4ccc(F)cc4)CC3)c(=O)c2c1S(=O)(=O)N1CCN(c2ncccn2)CC1 | inactive: -9.75% |
| Cc1ccccc1NC(=O)Nc1cccs1 | inactive: -5.59% |
| O=C1c2oc3ccccc3c(=O)c2C(c2cccc(Br)c2)N1c1ccccn1 (configuration not stated) | inactive: -16.5% |
| CCCCN(C)C(=O)Cn1cnc2sc(C)c(S(=O)(=O)N3CCN(c4ccccc4OC)CC3)c2c1=O | inactive: -0.423% |
| CCn1ccnc1CC1COc2ccccc2O1 (configuration not stated) | inactive: 17.4% |
| CNC(=O)c1ccc(NC(=O)COc2ccc(-c3nn(C)c(=O)c4ccccc34)cc2)cc1 | inactive: -6.92% |
| CCOC(=O)c1[nH]c2ccccc2c1NC(=O)c1cc(OCC)c(OCC)c(OCC)c1 | inactive: -1.25% |
| Cc1cc(=O)n2nc(N3CCC(C(=O)NCc4ccc(Cl)cc4)CC3)sc2n1 | inactive: -13.1% |
